Assay results taken from PMC4336329 (PLoS ONE, 2015).
The campaign covered roughly 310,000 compounds. About 2,200 (0.71%) showed an effect of 50% or more. The effect is printed as a negative number. The list shows a part of the results.

biological target: human ether-à-go-go-related gene (hERG) potassium channel (human, UniProt Q12809); experiment: primary screen, population patch clamp on CHO cells stably expressing hERG
Sequence (Q12809 whole entry, looked up): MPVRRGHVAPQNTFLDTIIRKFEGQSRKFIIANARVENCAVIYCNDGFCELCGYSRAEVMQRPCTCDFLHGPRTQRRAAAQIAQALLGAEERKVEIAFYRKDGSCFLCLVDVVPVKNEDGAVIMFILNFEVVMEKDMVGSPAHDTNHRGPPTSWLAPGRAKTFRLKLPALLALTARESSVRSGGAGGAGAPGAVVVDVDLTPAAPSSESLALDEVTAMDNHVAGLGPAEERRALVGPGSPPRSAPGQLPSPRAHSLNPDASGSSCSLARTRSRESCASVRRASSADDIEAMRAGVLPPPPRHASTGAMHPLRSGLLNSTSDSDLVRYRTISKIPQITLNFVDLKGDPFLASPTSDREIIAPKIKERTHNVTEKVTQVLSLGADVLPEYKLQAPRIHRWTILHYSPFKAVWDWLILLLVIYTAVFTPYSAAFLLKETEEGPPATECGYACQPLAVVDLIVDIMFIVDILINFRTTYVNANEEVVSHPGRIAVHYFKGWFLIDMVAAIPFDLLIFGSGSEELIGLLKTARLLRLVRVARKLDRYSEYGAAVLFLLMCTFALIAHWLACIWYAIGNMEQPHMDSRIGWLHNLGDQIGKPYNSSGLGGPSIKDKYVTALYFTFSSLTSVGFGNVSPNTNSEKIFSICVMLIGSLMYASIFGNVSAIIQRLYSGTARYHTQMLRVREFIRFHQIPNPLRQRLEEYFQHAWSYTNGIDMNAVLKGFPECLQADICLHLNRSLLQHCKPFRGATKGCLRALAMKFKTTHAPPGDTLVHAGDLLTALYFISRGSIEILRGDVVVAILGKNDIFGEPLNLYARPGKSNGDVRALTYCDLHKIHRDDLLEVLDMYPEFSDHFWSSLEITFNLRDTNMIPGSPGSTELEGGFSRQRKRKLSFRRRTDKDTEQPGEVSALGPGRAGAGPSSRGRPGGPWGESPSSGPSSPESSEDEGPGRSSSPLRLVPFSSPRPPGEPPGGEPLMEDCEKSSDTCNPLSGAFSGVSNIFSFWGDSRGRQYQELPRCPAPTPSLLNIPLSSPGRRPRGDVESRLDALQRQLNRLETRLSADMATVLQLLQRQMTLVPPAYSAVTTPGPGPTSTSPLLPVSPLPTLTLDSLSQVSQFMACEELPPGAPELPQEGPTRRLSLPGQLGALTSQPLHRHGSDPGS

| Structure (SMILES) | hERG current change (%, negative = inhibition) at 1uM |
| --- | --- |
| O=C1CSC(=S)N1/N=C/c1ccc(O)c(O)c1O | 5.89% |
| NS(=O)(=O)c1ccc(NNC(=O)c2sccc2Cl)cc1 | 1.99% |
| CCN(CC)C(C)C(=O)NCC1(c2ccccc2)CCOCC1.Cl (stereo not drawn) | 3.42% |
| Clc1ccc(Cn2nnc(-c3ccc(CN4CCOCC4)cc3)n2)cc1 | 7.6% |
| CC(C)n1c(SCc2ccccc2F)nc2c1c(=O)n(C)c(=O)n2C | 1.31% |
| COc1cc(/C=C2\C(=O)N(C)C(=S)N2C)ccc1O | 11.2% |
| O=[N+]([O-])c1ccc(Cl)c(CN2CCSCC2)c1 | 15.1% |
| COC(=O)c1ccc2c(c1)NC(=O)C(N1CCCCC1)S2 (stereo not drawn) | -0.836% |
| CCC(C)(C)n1nnnc1C(c1ccc(O)c(OC)c1)N1CCN(c2nc3ccccc3s2)CC1 (stereo not drawn) | 0.214% |
| CC1CN(C(=O)CS(=O)(=O)Cc2ccc(Cl)cc2)CC(C)O1 (stereo not drawn) | 18.6% |
| Cc1ccc(CN2CC(C(=O)Nc3ccncc3)CC2=O)cc1 (stereo not drawn) | 8.88% |
| CCOC(=O)N1CCN(CC(O)COc2ccc(C)c(C)c2)CC1.Cl (stereo not drawn) | 12.4% |
| CN(C)S(=O)(=O)c1ccc(C(=O)Nc2cccc(C(=O)O)c2)cc1 | 4.33% |
| CCOc1ccc(CCNC(=O)C2CCCN(c3nn4c(=O)cc(C)nc4s3)C2)cc1 (stereo not drawn) | -4.66% |
| Cc1cc2c(N=NC(=O)C3CC3c3ccccc3)c(O)[nH]c2cc1Br (stereo not drawn) | 3.77% |
| CN(C)C(CNC(=O)c1ccc(C(F)(F)F)cc1)c1ccco1 (stereo not drawn) | 15.2% |
| CC1(C)Cc2c(C#N)c(NCC3CCCO3)nc(-c3ccco3)c2CO1 (stereo not drawn) | 16.4% |
| Cc1nc(Nc2ccc(S(N)(=O)=O)cc2)sc1-c1ccccc1 | 21.6% |
| CCc1cccc(C)c1NC(=S)N(CCN(C)C)Cc1cccs1 | -3.85% |
| Br.CNCCc1nc(N)n[nH]1 | 9.54% |
| O=C(COC(=O)c1cc(-c2cccc3ccccc23)nc2ccccc12)NC1CCS(=O)(=O)C1 (stereo not drawn) | 5.94% |
| Cc1cc(N)n2nc(C)c(-c3ccccc3)c2n1 | 3.66% |
| COc1ccc(NC(=O)CCNC(=O)C2CCN(S(=O)(=O)c3ccc(OC)cc3)CC2)cc1 | 15.1% |

| Structure (SMILES) | hERG current change (%, negative = inhibition) at 1uM |
| --- | --- |
| Cc1ccc(/C=C/C2=NN(C)C(=O)CC2)cc1 | 8.49% |
| COc1ccc(/C=N/n2cnc3c([nH]c4ccc(F)cc43)c2=O)cc1CSc1ccccn1 | 13.4% |
| CCP(=O)(CC)C(C)(C)CP(=O)(c1ccccc1)c1ccccc1 | 1.89% |
| CCOC(=O)C1(C)NC(c2cccs2)C2C(=O)N(c3ccc(C)cc3)C(=O)C21 (stereo not drawn) | 21.8% |
| O=C(NCCN1CCOCC1)c1cc([N+](=O)[O-])ccc1Cl | 9.99% |
| CC(C)C(NC(=O)c1ccccc1F)C(=O)Nc1nccs1 (stereo not drawn) | 17.5% |
| CCCCNS(=O)(=O)c1ccc(NC(=O)C2CCCO2)cc1 (stereo not drawn) | -2.01% |
| COc1cc(NC(=S)Nc2cccc(Cl)c2Cl)c(OC)cc1Cl | 0.369% |
| S=c1[nH]ncn1/N=C/c1cccs1 | 12.8% |
| CN1/C(=C/c2cccc[n+]2CCO)Sc2ccccc21.[I-] | 6.72% |
| Clc1ncc(CN2CCN(c3ccccc3)CC2)s1 | 2.96% |
| Cc1ccc2[nH]c(=O)c(COC(=O)C3CCCCC3)cc2c1 | 15.5% |
| CN1CCN(C(=O)CN2C(=O)COc3ccc(S(=O)(=O)N4CCOCC4)cc32)CC1 | 14.6% |
| CCCCn1c(N)c(N(CC(C)C)C(=O)CN2C(=O)c3ccccc3C2=O)c(=O)[nH]c1=O | -2.86% |
| Cc1ccc(C(O)P(=O)(Oc2ccccc2)Oc2ccccc2)cc1 (stereo not drawn) | 4.04% |
| CCc1nnc(NS(=O)(=O)c2ccc(NC(=S)NC(=O)c3ccccc3)cc2)s1 | 17% |
| CCN(Cc1ccccc1)S(=O)(=O)c1ccc(C(=O)N(CCCN(C)C)c2nc3cc4c(cc3s2)OCCO4)cc1.Cl | 2.09% |
| COc1ccc(NC(=O)C2CC(=O)N(Cc3ccc(C)cc3)C2)cc1S(=O)(=O)N1CCCCC1 (stereo not drawn) | 8.95% |
| O=C(NC1CC2CCC(C1)N2Cc1ccccc1)c1cccc(F)c1 (stereo not drawn) | -17.5% |
| Cc1ccc(CSCCNC(=O)c2ccccc2)cc1 | 6.03% |
| O=C(Nc1ccc2c(c1)OCO2)NC1(C(F)(F)F)Oc2ccccc2O1 | 0.995% |
| CCCCn1c2ccccc2c2nnc(SCC(=O)NC3=NN=C(c4ccccc4)CS3)nc21 | 11% |
